Laboratory results reported in PubChem BioAssay AID624417 (National Center for Advancing Translational Sciences (NCATS), 2012).
In all, about 410,000 compounds went through this assay and about 6,400 (1.6%) were called active. Inconclusive results, whose numbers are uncertain, are shown with a selection of clear calls. The call rests on the fitted dose curve; in most records, active means well fitted inhibition curve with a large enough effect; inconclusive means small, poorly fitted or top-dose-only effect; inactive means no such curve, though single readings can be large or run the other way. Potencies of inconclusive entries are left out as doubtful fits.
Further: nearly all actives have a fitted effect of over 55% in size.
On the % scale 0 is the no-effect control and ±100 the full control effect; potency means the concentration at half of the fitted maximal effect; tags describe the fitted curve by direction and shape.

These compounds were tested against Glucagon-like peptide 1 receptor (Homo sapiens) (UniProt P43220) (assay: qHTS of GLP-1 Receptor Inverse Agonists (Inhibition Mode)). Settings: HEK293 GLP-1R CRE-luciferase, luminescence, 24 h, GLP-1R form is constitutively active; activity change, negative = inhibition: at 38.3 µM (top of the series) unless noted.
Chain of UniProt P43220 (P43220 whole entry, looked up): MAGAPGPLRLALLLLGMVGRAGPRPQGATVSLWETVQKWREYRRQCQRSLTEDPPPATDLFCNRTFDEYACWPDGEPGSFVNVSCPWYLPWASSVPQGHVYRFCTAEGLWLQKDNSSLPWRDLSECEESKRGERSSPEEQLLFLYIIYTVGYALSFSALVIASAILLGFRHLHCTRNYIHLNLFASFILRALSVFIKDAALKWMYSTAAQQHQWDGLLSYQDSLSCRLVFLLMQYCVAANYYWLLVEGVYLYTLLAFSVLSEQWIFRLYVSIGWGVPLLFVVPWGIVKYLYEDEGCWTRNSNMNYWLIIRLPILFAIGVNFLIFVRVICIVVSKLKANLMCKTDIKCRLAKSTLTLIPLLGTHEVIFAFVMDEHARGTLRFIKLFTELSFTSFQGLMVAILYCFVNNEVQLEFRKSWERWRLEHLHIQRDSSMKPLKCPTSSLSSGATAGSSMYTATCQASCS
How it was run: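 Assay principle: reduced luminescence from a cAMP-responsive reporter in HEK293 cells co-expressing a constitutively active GLP-1R. Conditions: 24 hr compound incubation, 37 deg C, 5% CO2.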
With `CC1=Nc2ccccc2/C1=C/c1sc(=S)n(-c2cccc(C(=O)O)c2)c1O` the “activity change, negative = inhibition” value was inactive: 1.69%.
For `O=C(Nc1ncc2c(n1)-c1ccccc1CC2)c1cccc(Cl)c1`, the Potency was inconclusive [inhibitor, partial curve].
For `C=C(C)CNC(=S)N/N=C\c1ccc2c(c1)OCO2`, the Potency was inconclusive [inhibitor, single point].
In the case of `CC1(C)CC2(C)OC(=N)C1(C#N)C2(C#N)C#N` (configuration not stated), the “activity change, negative = inhibition” value is reported as inactive: 42.2%.
`Cc1ccc(C)c(N2CN(Cc3ccco3)CNC2=S)c1` was tested, and the Potency was inconclusive [inhibitor, single point].
With `CS(=O)(=O)N(CC(O)Cn1c2ccccc2c2ccccc21)c1cccc2ccccc12` (configuration not stated) the Potency was inconclusive [inhibitor, partial curve, poor fit].
With `CCC(CC)NC(=O)c1cc2c(C)nn(Cc3ccccc3Cl)c2s1` the Potency was inconclusive [inhibitor, single point].
With `CC(C)CCN1CCN(Cc2cccc(C(F)(F)F)c2)CC1CCO` (configuration not stated) the Potency was inconclusive [inhibitor, partial curve, poor fit].
`Cc1c(Br)c(C(F)(F)F)nn1CC(=O)NCc1ccco1` was tested, and the “activity change, negative = inhibition” value was inactive: -27.8%.
For `O=C(O)C(c1ccccc1)N1C(=O)/C(=C\c2ccc(O)c(O)c2)SC1=S` (configuration not stated), the “activity change, negative = inhibition” value was inactive: -9.87%.
With `CCC(=O)Nc1cccc(C2=NOC3(C2)C[C@@H](C(N)=O)N(C(=O)C(c2ccccc2)c2ccccc2)C3)c1` (some centres not stated) the “activity change, negative = inhibition” value was inactive: -20.8%.
In the case of `Cc1cnc(C(=O)OCC(=O)Nc2sc3c(c2C(N)=O)CCCC3)cn1`, the “activity change, negative = inhibition” value is reported as inactive: -4.22%.
`Brc1ccc(COc2cccc3cccnc23)cc1` was tested, and the Potency was inconclusive [inhibitor, partial curve, poor fit].
With `Cc1ccc(-c2ccc(=O)n(Cc3ccc(F)cc3Cl)n2)cc1` the activity change, negative = inhibition was inconclusive: -74.5% [inhibitor].
With `O=C(Nc1ccc2c(c1)CCCN2C(=O)c1cccs1)c1ccccc1Cl` the Potency was inconclusive [inhibitor, full curve].
In the case of `COCCCn1c(SCC(=O)Nc2nc3ccccc3s2)nnc1-c1ccoc1C`, the Potency is reported as inconclusive [inhibitor, single point].
With `O=C(c1ccc(Cl)c([N+](=O)[O-])c1)N1CCN(c2ccccc2)CC1` the Potency was inconclusive [inhibitor, single point].
With `CC1(C)CC(Cc2ccc(C(=O)c3ccccc3)cc2)N(C(=O)OC(C)(C)C)N1` (configuration not stated) the Potency was inconclusive [inhibitor, single point].
For `FC(F)(F)c1cc(-c2ccccc2)nc(N2CCCCC2)n1`, the Potency was inconclusive [inhibitor, single point].
For `O=C1[C@H](Cc2ccccc2)NCCCC[C@@H](c2ccco2)N1Cc1ccccc1`, the Potency was inconclusive [inhibitor, single point].
For `O=C(/C=C/c1ccccc1)NC(=S)Nc1ccc(N2CCOCC2)cc1`, the “activity change, negative = inhibition” value was inactive: 25%.
With `Clc1ccc(-c2noc3ncnc(NCCc4ccccc4)c23)cc1` the “activity change, negative = inhibition” value was inactive: -33.9%.
In the case of `Cc1cccc(Cn2c(N3CCN(c4ccccc4)CC3)nc3c2c(=O)n(C)c(=O)n3C)c1`, the Potency is reported as inconclusive [inhibitor, single point].
`Cc1ccc(S(=O)(=O)N2C[C@@H]3[C@H]4CC[C@H](C4)[C@@H]3[C@@H](C)[C@@H]2c2ccn(Cc3ccccc3)c2)cc1` was tested, and the Potency was inconclusive [inhibitor, single point].
For `CC1CN(C(=S)Nc2ccccc2)N(c2ccccc2)C1` (configuration not stated), the Potency was inconclusive [inhibitor, partial curve, poor fit].
`Cc1ccccc1Nc1nc(-c2cccnc2)nc2ccccc12` was tested, and the Potency was inconclusive [inhibitor, single point].
For `COC(=O)C1=C(C)NC(C)=C(C(=O)OC(C)C)C1c1cccc2nonc12` (configuration not stated), the Potency was inconclusive [inhibitor, full curve].
For `O=C(Nc1ccc(OC(F)(F)F)cc1)Nc1cccnc1`, the Potency was inconclusive [inhibitor, single point].
For `CCSc1nc(-c2ccco2)ccc1C#N`, the “activity change, negative = inhibition” value was inactive: 40.6%.
In the case of `CCOC(=O)C1CCN(C(c2cccc(F)c2)c2c(O)cc(C)n(CCOC)c2=O)CC1` (configuration not stated), the “activity change, negative = inhibition” value is reported as inactive: 19.2%.
`COc1cccc(NC(=O)CN(C)C(=O)c2oc3c(ccc4ccccc43)c2C)c1` was tested, and the Potency was inconclusive [inhibitor, partial curve, poor fit].
`Cc1ccc(C(CC(=O)N2CCNCC2)c2ccccc2)c(O)c1C` (configuration not stated) was tested, and the Potency was inconclusive [inhibitor, single point].
`COc1ccc(NC(=S)N2CCC(C(=O)c3ccc(F)cc3)CC2)cc1` was tested, and the Potency was inconclusive [inhibitor, single point].
`CN(CCc1ccccc1)C(=O)c1cccc(NC(=O)Cc2cccc(NC(=O)C3CCCN(S(=O)(=O)c4cccc([N+](=O)[O-])c4)C3)c2)c1` (configuration not stated) was tested, and the “activity change, negative = inhibition” value was inactive: -17%.
With `CC(/C=N/n1c(-c2ccco2)n[nH]c1=S)=C\c1ccccc1` the “activity change, negative = inhibition” value was inactive: -4.46%.
With `COc1ccc(C2SCCN2C(=S)Nc2cccc(Cl)c2)cc1` (configuration not stated) the Potency was inconclusive [inhibitor, single point].
In the case of `Cc1ccc2nc(NC(=O)C3CCN(C(=O)c4ccc(F)cc4)CC3)sc2c1`, the Potency is reported as inconclusive [inhibitor, partial curve, poor fit].
For `CC(=O)c1ccccc1OCc1ccc(C(=O)c2ccccc2)cc1`, the Potency was inconclusive [inhibitor, single point].
For `O=C(Cn1c(=O)nc(-c2ccccc2)c2cc(Cl)ccc21)N1CCN(c2ccc(F)cc2)CC1`, the “activity change, negative = inhibition” value was inactive: 6.02%.
With `COc1ccc(N2CCN(C(=O)c3ccc(Cn4c(=S)[nH]c5ccc(N6CCOCC6)cc5c4=O)cc3)CC2)cc1` the Potency was inconclusive [inhibitor, partial curve, poor fit].
For `COc1ccc(Br)cc1CN1C(=O)c2ccccc2C1C(=O)NC1CCCCCC1` (configuration not stated), the “activity change, negative = inhibition” value was inactive: 8.73%.
`CN(C)CCCNC(=O)c1ccc(-c2nc(-c3ccc(Cl)cc3)cs2)cc1` was tested, and the Potency was active: 6.31 µM.
With `CCc1ccc(NC(=O)c2cnc(SC)nc2C)cc1` the Potency was inconclusive [inhibitor, partial curve].
`O=C(NCCCCc1ccccc1)c1cccc(NC(=O)C2CCCC2)c1` was tested, and the Potency was inconclusive [inhibitor, single point].
`COc1ccc(CC(=O)Nc2c(C(=O)N3CCN(c4ccccc4OC)CC3)oc3ccccc23)cc1OC` was tested, and the Potency was inconclusive [inhibitor, single point].
For `CN(c1nc2ccccc2nc1Cl)S(=O)(=O)c1ccccc1`, the Potency was active: 10 µM.
`CCc1nc(SCc2ccc(Br)cc2)n[nH]1` was tested, and the “activity change, negative = inhibition” value was inactive: 10.1%.
For `CCOC(=O)C(CC(=O)Nc1nc(C(C)=O)c(C)s1)C(C)c1ccccc1` (configuration not stated), the Potency was inconclusive [inhibitor, single point].
With `Cc1cccc(-c2nnc(C3CCN(S(=O)(=O)c4cccc(Cl)c4)CC3)o2)c1` the Potency was inconclusive [inhibitor, single point].
For `O=C(CNC(=O)/C(=C\c1ccc(Br)cc1)NC(=O)c1ccccc1)OCc1ccccc1`, the Potency was inconclusive [inhibitor, single point].
In the case of `CC(C)CNC(=O)c1cccc(NC(=O)CSc2ccc(Cl)cc2)c1`, the Potency is reported as inconclusive [inhibitor, single point].
In the case of `Cc1cccc(OCc2nnc(SCn3nnc4ccccc4c3=O)o2)c1`, the Potency is reported as inconclusive [inhibitor, single point].
In the case of `Cc1ccc(NC(=O)c2ccc3c(c2)OCCO3)cc1`, the Potency is reported as inconclusive [inhibitor, single point].
In the case of `Cn1nc(C(=O)Nc2ccc(F)c(Cl)c2)c2c1-c1ccccc1S(=O)(=O)C2`, the “activity change, negative = inhibition” value is reported as inactive: 16.1%.
For `O=C(NCc1ccccc1)C(c1cccc2ccccc12)n1c(=O)c(-c2ccccc2)nc2ccccc21` (configuration not stated), the Potency was inconclusive [inhibitor, full curve, poor fit].
In the case of `O=C(NCC1CCOCC1)c1ccc(-c2ccc(F)c(F)c2)c2ccoc12`, the Potency is reported as inconclusive [inhibitor, single point].
`Cc1c2cnn(CC(=O)NCCCN3CC(C)CC(C)C3)c(=O)c2c(C)n1Cc1ccccc1Cl` (configuration not stated) was tested, and the Potency was inconclusive [inhibitor, single point].
`CN(C)S(=O)(=O)c1ccc(C(=O)NCC(=O)N/N=C/c2ccccc2)cc1` was tested, and the “activity change, negative = inhibition” value was inactive: -18.1%.
For `COc1ccc(CCNC(=O)C2CCCN(c3nc4ccccc4s3)C2)cc1OC` (configuration not stated), the Potency was inconclusive [inhibitor, partial curve, poor fit].
For `O=S(=O)(c1ccc2nc(N3CCN(c4cccc(Cl)c4)CC3)ccc2c1)N1CCCCC1`, the “activity change, negative = inhibition” value was inactive: 3.79%.
`CCN(CC)S(=O)(=O)c1cccc(-c2nnc(SCC(=O)c3cc(C)n(C4CC4)c3C)o2)c1` was tested, and the Potency was inconclusive [inhibitor, full curve].
In the case of `Cc1ccc(Cl)cc1N1CCN(Cc2nnc(-c3ccc4c(c3)OCO4)o2)CC1`, the Potency is reported as inconclusive [inhibitor, single point].
For `Cc1cc(SCC(=O)NC(=O)NCc2ccco2)nc2ccccc12`, the “activity change, negative = inhibition” value was inactive: 0.823%.
`CN1CCN(c2sc(S(C)(=O)=O)nc2S(=O)(=O)c2ccc(Cl)cc2)CC1` was tested, and the Potency was inconclusive [inhibitor, partial curve, poor fit].
With `CCN(CC)CCCNC(=O)c1cc(-c2cccc(Cl)c2)on1` the Potency was inconclusive [inhibitor, single point].
With `CSc1nc(C)cc(C)c1S(=O)(=O)c1ccccc1C` the Potency was active: 5.01 µM.
In the case of `CCNC(=O)C1(C)CCCN(C(=O)c2ccc3c(c2)C(C)(C)CCC3(C)C)C1` (configuration not stated), the Potency is reported as inconclusive [inhibitor, full curve, poor fit].
